Hit rate of the full screen: of about 310,000 compounds, about 14,000 (4.5%) showed an effect of 50% or more. The effect is printed as a negative number. The list shows a part of the results.
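Further: peak tail current of the secondary pulse compared with the same well before compound.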

In this assay the target is human ether-à-go-go-related gene (hERG) potassium channel (human, UniProt Q12809). The assay can be described thus: primary screen, population patch clamp on CHO cells stably expressing hERG.
human ether-à-go-go-related gene (hERG) potassium channel, sequence (Q12809 whole entry, looked up): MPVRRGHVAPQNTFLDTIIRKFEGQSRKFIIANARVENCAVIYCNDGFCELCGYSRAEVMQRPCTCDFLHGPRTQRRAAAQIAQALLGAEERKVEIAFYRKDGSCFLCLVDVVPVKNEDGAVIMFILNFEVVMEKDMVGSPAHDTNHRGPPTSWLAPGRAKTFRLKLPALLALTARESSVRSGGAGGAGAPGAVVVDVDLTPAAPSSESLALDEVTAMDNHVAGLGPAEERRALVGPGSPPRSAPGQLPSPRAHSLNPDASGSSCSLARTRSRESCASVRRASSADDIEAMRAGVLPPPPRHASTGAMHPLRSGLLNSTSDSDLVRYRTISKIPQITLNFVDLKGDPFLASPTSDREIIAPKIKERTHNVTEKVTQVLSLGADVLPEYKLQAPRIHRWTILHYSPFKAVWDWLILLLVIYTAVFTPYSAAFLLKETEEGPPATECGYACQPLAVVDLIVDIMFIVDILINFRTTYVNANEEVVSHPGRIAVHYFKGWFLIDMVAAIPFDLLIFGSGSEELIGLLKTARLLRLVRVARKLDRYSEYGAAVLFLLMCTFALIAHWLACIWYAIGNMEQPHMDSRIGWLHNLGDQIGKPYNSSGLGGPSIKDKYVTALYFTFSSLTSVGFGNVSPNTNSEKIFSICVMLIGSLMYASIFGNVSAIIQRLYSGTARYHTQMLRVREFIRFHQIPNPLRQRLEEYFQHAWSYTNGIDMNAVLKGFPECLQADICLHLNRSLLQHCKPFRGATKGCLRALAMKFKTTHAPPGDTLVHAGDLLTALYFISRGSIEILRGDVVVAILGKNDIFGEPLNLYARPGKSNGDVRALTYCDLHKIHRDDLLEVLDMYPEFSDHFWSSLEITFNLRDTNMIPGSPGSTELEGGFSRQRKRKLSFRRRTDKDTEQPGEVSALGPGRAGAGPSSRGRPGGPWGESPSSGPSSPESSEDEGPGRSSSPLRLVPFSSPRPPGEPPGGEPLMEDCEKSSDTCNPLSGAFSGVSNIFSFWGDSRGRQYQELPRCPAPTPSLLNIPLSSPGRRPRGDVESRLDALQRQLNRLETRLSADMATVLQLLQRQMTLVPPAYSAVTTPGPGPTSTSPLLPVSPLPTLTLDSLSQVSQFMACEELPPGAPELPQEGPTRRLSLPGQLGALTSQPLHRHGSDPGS
In the case of `O=C(CSc1ccccn1)Nc1ccc2c(c1)CCC2`, the “hERG current change (%, negative = inhibition) at 10uM” value is listed as -3.64%. Then `O=C(N/N=C\c1ccc(O)c([N+](=O)[O-])c1)C1COc2ccccc2O1` (stereo not shown), with -4.56%. Then `COC(=O)CN1C(=S)N(c2ccc(OC)cc2)C(=O)/C1=C/c1ccc(OC)cc1`, with 10.2%; and `Cc1occc1C(=O)Nc1c(Cl)cccc1Cl`, with -1.63%. Turning to `O=C(COc1ccccc1)Nc1cccc(-c2nc3cc4ccccc4cc3[nH]2)c1`, the “hERG current change (%, negative = inhibition) at 10uM” value is recorded as -9.82%. To `COc1ccc(C(=O)N/N=C/C23CC[C@@H](O)CC2(O)CC[C@@H]2[C@@H]3CCC3(C)C(C4=CC(=O)OC4)CCC23O)cc1` (stereo partly shown) belongs 0.942%; to `CCOc1ccc(/C=N/NC(=O)C2CC2)c(OCC)c1`, 2.21%. To `COc1ccc(-c2cc(C(=O)N/N=C(\C)c3ccco3)c3ccccc3n2)c(OC)c1` belongs 18%; to `CCCCC(=O)Nc1ccc(C(=O)Nc2ccc(S(=O)(=O)Nc3ccc(C)cc3)cc2)cc1`, 9.5%. For the compound `Fc1ccc(NCc2nnc(SCc3nnc(-c4ccccc4)o3)n2Cc2ccccc2)cc1`, the “hERG current change (%, negative = inhibition) at 10uM” value was -46%.

On to `CCN(CC(=O)Nc1cc(C)nn1-c1nc(C)cc(C)n1)Cc1ccccc1`, for which the “hERG current change (%, negative = inhibition) at 10uM” value is -42.8%. To `CCn1cc(C(=O)Nc2sc(C)c(C)c2C(=O)OC)cn1` belongs -12.6%; to `COc1ccc(CCN(C)C(=O)C2CCCN(Cc3ccc(OC)c(OC)c3)C2)cc1OC.O=C(O)C(=O)O` (stereo not shown), -3.31%. Take `CC(C)CCNC(=O)COC(=O)c1cc(Br)c(Br)s1`: the “hERG current change (%, negative = inhibition) at 10uM” value is listed as 13.7%.

Consider `O=C(CN1CCN(c2cccc(Cl)c2)CC1)N1CCCC1`, for which the “hERG current change (%, negative = inhibition) at 10uM” value is on record as -8.34%. For the compound `NC(=O)COc1c(-c2ccccc2)oc2ccccc2c1=O`, the “hERG current change (%, negative = inhibition) at 10uM” value is given as -12.5%. Turning to `Cc1occc1C(=O)NNC(=O)c1cccc(F)c1`, the “hERG current change (%, negative = inhibition) at 10uM” value stood at 15%.

Regarding `N#Cc1cc[n+](CC(=O)c2ccc(NC(=O)c3ccccc3)cc2)cc1.[Br-]`, the “hERG current change (%, negative = inhibition) at 10uM” value was -14.6%. For the compound `CCCCCCC(=O)N/N=C(\C)Cc1ccccc1`, the “hERG current change (%, negative = inhibition) at 10uM” value worked out at 3.25%. Then `O=C(c1c(F)cccc1F)N1CCCC(c2nc(-c3cccs3)no2)C1` (stereo not shown), with -20.9%; and `C[C@H]1C[C@H]2[C@@H]3CCC4=CC(=O)C=C[C@]4(C)[C@@]3(F)[C@@H](O)C[C@]2(C)[C@@]1(O)C(=O)CO`, with -1.56%. Then `CN(c1ccccc1)S(=O)(=O)c1ccc(Cl)c(C(=O)OCC(=O)NC2CCS(=O)(=O)C2)c1` (stereo not shown), with -9.5%; and `Fc1ccc(-c2cnc3n2CCCCC3)cc1`, with -7.09%. Then `C/C(=N\NC(=O)c1c[nH]c2ccccc12)c1ccco1`, with -0.529%; and `COc1ccccc1NC(=O)COc1ccc(Br)cc1CO`, with -4.58%; and `CCOc1ccc(NS(=O)(=O)c2ccc(NC(=O)[C@@H]3CCCC[C@@H]3C(=O)O)cc2)cc1`, with -4.25%. For the compound `O=C(CCN1C(=O)C2C3C=CC(C3)C2C1=O)Nc1c(F)cc(F)cc1Br` (stereo not shown), the “hERG current change (%, negative = inhibition) at 10uM” value is given as 15.1%. Consider `CN(C)N1C(N)=C(C#N)C(c2ccc(Br)cc2)C2=C1CCCC2=O` (stereo not shown), for which the “hERG current change (%, negative = inhibition) at 10uM” value was -47.1%. As to `CN(C)c1nc(-c2ccccc2)c2cc(Cl)ccc2n1`, the “hERG current change (%, negative = inhibition) at 10uM” value worked out at 15.5%. On to `Cc1cccc(NC(=S)N(CCN(C)C)C(C)c2cccnc2)c1` (stereo not shown), for which the “hERG current change (%, negative = inhibition) at 10uM” value is on record as -29.4%. Then `COc1cccc(C(=O)Nc2ccc(C(=O)O)cc2)c1`, with 5.69%; and `Cc1cc(O)ccc1N1C(=O)c2cccc3cc([N+](=O)[O-])cc(c23)C1=O`, with 21%; and `CCOc1cc(/C=N/NC(=O)C2CCCC2)ccc1O`, with 3.33%. As to `CCOC(=O)N1CCN(C(=O)c2csc3c2CCCCC3)CC1`, the “hERG current change (%, negative = inhibition) at 10uM” value worked out at 8.08%. Turning to `O=C(NCc1ccccc1Cl)c1cc(C(=O)C2CC2)c[nH]1`, the “hERG current change (%, negative = inhibition) at 10uM” value stood at 24.7%. Then `O=C(Nc1ccc(C(=O)NC2CCCCC2)cc1)c1cncc(Br)c1`, with 7.95%; and `C=CCn1c(SCn2nnc3ccccc3c2=O)nc2scc(-c3cccs3)c2c1=O`, with -5.21%; and `CCOC(=O)C1=C(C)Nc2ncnn2C1c1cc(OC)ccc1OC` (stereo not shown), with 7.14%.

In the case of `COc1ccc(C(=O)C2CCCN(C(=O)/C=C/c3ccccn3)C2)c(C)c1` (stereo not shown), the “hERG current change (%, negative = inhibition) at 10uM” value is -4.66%. To `COc1ccc(Br)cc1CN(C)CC(=O)NCCc1ccc(S(N)(=O)=O)cc1` belongs -31.8%; to `CCc1sc(N(C(=O)Cc2ccccc2)c2ccccc2)nc1-c1ccccc1`, 9.11%. Then `O=C(OCCCc1cc2ccccc2c(=O)o1)c1ccc(C(F)(F)F)cc1`, with -6.59%; and `CC1CCc2c(sc3nc(SCC(=O)NCc4ccco4)nc(N)c23)C1` (stereo not shown), with -3.53%; and `CCc1c(C)nc(SC(C(=O)O)c2ccccc2)c(C#N)c1C` (stereo not shown), with -14.2%. For the compound `CC(=O)N1c2ccc(S(=O)(=O)NCCC(=O)NCCc3cccc(C)c3)cc2CC1C` (stereo not shown), the “hERG current change (%, negative = inhibition) at 10uM” value is -4.31%. To `CCN(C(=O)COc1cc(=O)n(CC)c2ccccc12)c1cccc(Cl)c1` belongs -40.9%; to `Cc1nc(SCC(=O)c2cccc([N+](=O)[O-])c2)n[nH]1`, 5.2%. To `O=C(O)c1cccc(Nc2c3ccccc3nc3ccccc23)c1` belongs 19.7%; to `C=C(C)Cn1c(=O)c(NC(=O)c2ccccc2)c2n(c1=S)CCC2`, 0.462%. Take `CCCC(=O)c1ccc(N2CCCCCC2)c(F)c1`: the “hERG current change (%, negative = inhibition) at 10uM” value was -17.9%. To `CC1CC(C)CN(C(=O)c2cccc3c2-c2ccccc2C3=O)C1` (stereo not shown) belongs -18.8%; to `COc1cc(C(CCN2CCOCC2)c2c(OC)cc(OC)c3c2OC(=O)CC3c2ccc(N(C)C)cc2)cc(OC)c1OC` (stereo not shown), -1.75%. For `CCC(=O)N1CCN(c2ccc(NC(=O)COc3cccc(C)c3C)cc2)CC1`, the “hERG current change (%, negative = inhibition) at 10uM” value is listed as -12%. Regarding `Cc1ccc(Cl)cc1NC(=O)CC1NCCNC1=O` (stereo not shown), the “hERG current change (%, negative = inhibition) at 10uM” value is 13.6%.

Consider `COc1ccc(-c2cn3cccnc3n2)cc1Br`, for which the “hERG current change (%, negative = inhibition) at 10uM” value is listed as -14%.

The record behind these values is publication PMC4336329 (PLoS ONE, 2015).
